Source: the supplement of paper PMC12217912
This is one part of the list. The full chains were built here from the parent and the listed change. Values near 0.05 are background.

B1: TEV protease; numbered along this chain (parent)
chain: MGESLFKGPRDYNPISSSICHLTNESDGHTTSLYGIGFGPFIITNKHLFRRNNGTLVVQSLHGVFKVKDTTTLQQHLVDGRDMIIIRMPKDFPPFPQKLKFREPQREERICLVTTNFQTKSMSSMVSDTSCTFPSGDGIFWKHWIQTKDGQCGSPLVSTRDGFIVGIHSASNFTNTNNYFTSVPKNFMELLTNQEAQQWVSGWRLNADSVLWGGHKVFMVKPEEPFQPVKEATQL

Variants of: B1
Assay: raw area under fraction-flipped curve 0-4 h after induction (AUC4h, not background-subtracted), DNA-recorder readout of cleavage of the substrate (dimensionless); higher = more cleavage of the substrate by the protease variant
Details: temperature: 34 °C; time window: 0-4 h after rhamnose induction
Protocol: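 In vivo DNA recorder in E. coli TOP10(DE3) ΔrhaA at 34 °C. Each TEVp single-site mutant (parent TEVp 0) is paired with a single-site variant of the 7-mer TEVs (canonical ENLYFQ|S). The substrate sits between flexible linkers in a Bxb1-sfGFP-TEVs-SsrA fusion, so cleavage stabilises Bxb1 and speeds flipping of a recombination array, read by NGS. The value is the raw area under the fraction-flipped curve over 0-4 h after rhamnose induction (AUC4h), with ≥20 reads per time point. It is not background-subtracted; inactive controls average about 0.047.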
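Note: Bxb1 expression induced with 0.2% (w/v) L-rhamnose at OD600 near 0.5, cultures sampled hourly, flipped fraction per protease–substrate barcode pair counted by paired-end Illumina sequencing.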

Variant | area with substrate ENLYAQS | area with substrate ENLYDQS | area with substrate ENLYEQS | area with substrate ENLYGQS | area with substrate ENLYHQS | area with substrate ENLYIQS | area with substrate ENLYKQS | area with substrate ENLYMQS | area with substrate ENLYNQS | area with substrate ENLYPQS | area with substrate ENLYQQS | area with substrate ENLYRQS | area with substrate ENLYWQS | area with substrate ENLYLQS | area with substrate ENLYSQS | area with substrate ENLYVQS | area with substrate ENLYTQS | area with substrate ENLYYQS | area with substrate ENLYCQS
MGESLFKGPRDYNPISSSICHLTNESDGHTTSLYGIGFGPFIITNKHLFRRNNGTLVVQSLHGVFKVKDTTTLQQHLVDGRDMIIIRMPKDFPPFPQKLKFREPQREERICLVTTNFQTKSMSSMVSDTSCTFPSGDGIFWKHWIQTKDGQCGSPLVSTRDGFIVGIHSASNFTNMNNYFTSVPKNFMELLTNQEAQQWVSGWRLNADSVLWGGHKVFMVKPEEPFQPVKEATQL [T176M] | 0.0736 | 0.0577 | 0.0655 | 0.043 | 0.0549 | 0.0887 | 0.0652 | 0.06 | 0.0648 | 0.0695 | 0.0662 | 0.0712 | 0.063 |  |  |  |  |  | 
MGESLFKGPRDYNPISSSICHLTNESDGHTTSLYGIGFGPFIITNKHLFRRNNGTLVVQSLHGVFKVKDTTTLQQHLVDGRDMIIIRMPKDFPPFPQKLKFREPQREERICLVTTNFQTKSMSSMVSDTSCTFPSGDGIFWKHWIQTKDGQCGSPLVSTRDGFIVGIHSASNFTNINNYFTSVPKNFMELLTNQEAQQWVSGWRLNADSVLWGGHKVFMVKPEEPFQPVKEATQL [T176I] | 0.0479 | 0.0586 | 0.0613 | 0.0583 | 0.0793 | 0.0656 | 0.0609 | 0.0644 | 0.0572 | 0.0655 | 0.0513 | 0.0651 | 0.0422 | 0.0487 | 0.0595 | 0.0717 |  |  | 
MGESLFKGPRDYNPISSSICHLTNESDGHTTSLYGIGFGPFIITNKHLFRRNNGTLVVQSLHGVFKVKDTTTLQQHLVDGRDMIIIRMPKDFPPFPQKLKFREPQREERICWVTTNFQTKSMSSMVSDTSCTFPSGDGIFWKHWIQTKDGQCGSPLVSTRDGFIVGIHSASNFTNTNNYFTSVPKNFMELLTNQEAQQWVSGWRLNADSVLWGGHKVFMVKPEEPFQPVKEATQL [L112W] | 0.076 |  | 0.0613 | 0.0537 | 0.0553 | 0.0647 |  | 0.0677 | 0.0678 | 0.0643 | 0.0608 | 0.0612 | 0.0468 | 0.0503 | 0.0721 | 0.0798 | 0.069 |  | 
MGESLFKGPRDYNPISSSICHLTNESDGHTTSLYGIGFGPFIITNKHLFRRNNGTLVVQSLHGVFKVKDTTTLQQHLVDGRDMIIIRMPKDFPPFPQKLKFREPQREERICQVTTNFQTKSMSSMVSDTSCTFPSGDGIFWKHWIQTKDGQCGSPLVSTRDGFIVGIHSASNFTNTNNYFTSVPKNFMELLTNQEAQQWVSGWRLNADSVLWGGHKVFMVKPEEPFQPVKEATQL [L112Q] | 0.07 |  | 0.0696 | 0.0819 | 0.0627 | 0.0726 | 0.0634 | 0.0553 | 0.0681 | 0.0572 |  | 0.0543 | 0.053 |  | 0.0737 | 0.0799 | 0.0542 | 0.068 | 
MGESLFKGPRDYNPISSSICHLTNESDGHTTILYGIGFGPFIITNKHLFRRNNGTLVVQSLHGVFKVKDTTTLQQHLVDGRDMIIIRMPKDFPPFPQKLKFREPQREERICLVTTNFQTKSMSSMVSDTSCTFPSGDGIFWKHWIQTKDGQCGSPLVSTRDGFIVGIHSASNFTNTNNYFTSVPKNFMELLTNQEAQQWVSGWRLNADSVLWGGHKVFMVKPEEPFQPVKEATQL [S32I] | 0.0722 | 0.0486 | 0.0732 | 0.0666 | 0.0509 | 0.116 | 0.0542 |  | 0.0694 | 0.0661 | 0.0709 | 0.0648 | 0.0726 |  | 0.0323 | 0.14 | 0.0795 | 0.0587 | 
MGESLFKGPRDYNPISSSICHLTNESDGHTTSLYGIGFGPFIITNKHLFRRNNGTLVVQSLHGVFKVKDTTTLQQHLVDGRDMIIIRMPKDFPPFPQKLKFREPQREERICLVTTNFQTKSMSSMVSDTSCTFPSGDGIFWKHWIQTKDGQCGSPLVSTRDGFIEGIHSASNFTNTNNYFTSVPKNFMELLTNQEAQQWVSGWRLNADSVLWGGHKVFMVKPEEPFQPVKEATQL [V165E] | 0.05 | 0.0591 | 0.0539 | 0.0518 | 0.0546 | 0.0536 | 0.055 | 0.0476 | 0.0475 | 0.066 |  | 0.0491 | 0.0426 |  | 0.0553 | 0.0488 | 0.0542 | 0.0542 | 0.0512
MGESLFKGPRDYNPISSSICHLTNESDGHTTSLYGIGFGPFIITNKHLFRRNNGTLVVQSLHGVFKVKDTTTLQQHLVDGRDMIIIRMPKDFPPFPQKLKFREPQREERICLVTTNFQTKSMSSMVSDTSCTFPSGDGIFWKHWIQTKDGQCGSPLVSTRDGFIVGIGSASNFTNTNNYFTSVPKNFMELLTNQEAQQWVSGWRLNADSVLWGGHKVFMVKPEEPFQPVKEATQL [H168G] | 0.064 | 0.0757 |  |  | 0.0671 |  |  | 0.0642 | 0.0508 | 0.0593 |  |  |  | 0.055 | 0.0569 |  | 0.0865 |  | 
MGESLFKGPRDYNPISSSICHLTNESDGHTTSLYGIGFGPFIITNKHLFRRNNGTLVVQSLHGVFKVKDTTTLQQHLVDGRDMIIIRMPKDFPPFPQKLKFREPQREERICLVTTNFQTKSMSSMVSDTSCTFPSGDGIFWKHWIQTKDGQKGSPLVSTRDGFIVGIHSASNFTNTNNYFTSVPKNFMELLTNQEAQQWVSGWRLNADSVLWGGHKVFMVKPEEPFQPVKEATQL [C152K] | 0.0421 | 0.0738 |  | 0.0622 | 0.067 | 0.0613 | 0.0541 | 0.0532 |  | 0.0423 | 0.0581 | 0.0575 |  |  | 0.0515 | 0.0591 |  |  | 
MGESLFKGPSDYNPISSSICHLTNESDGHTTSLYGIGFGPFIITNKHLFRRNNGTLVVQSLHGVFKVKDTTTLQQHLVDGRDMIIIRMPKDFPPFPQKLKFREPQREERICLVTTNFQTKSMSSMVSDTSCTFPSGDGIFWKHWIQTKDGQCGSPLVSTRDGFIVGIHSASNFTNTNNYFTSVPKNFMELLTNQEAQQWVSGWRLNADSVLWGGHKVFMVKPEEPFQPVKEATQL [R10S] | 0.0856 | 0.0595 | 0.0599 | 0.0714 | 0.0701 | 0.104 | 0.0415 | 0.0929 | 0.0637 | 0.0761 | 0.0547 | 0.0475 | 0.0858 | 0.0863 | 0.088 | 0.109 |  | 0.0563 | 0.0742
